About 620 (0.23%) of roughly 270,000 compounds were called active. Inconclusive results, whose numbers are uncertain, are shown with a selection of clear calls. Calls come from the whole dose curve; as a rule, active = well fitted inhibition curve with a large enough effect in the polarisation, with a control signal flat (not every such curve was filed as active); inconclusive = small, poorly fitted or top-dose-only effect, or effect the other way, or a change in a side signal; inactive = no such curve, though single readings can be large or run the other way; the % refers to the polarisation. Where the call is inconclusive, the potency comes from a doubtful curve fit. A note “side channel” means that the fit belongs to a control or component signal, not to the main read-out.
What follows are compounds tested against Menin (Homo sapiens) (UniProt O00255) (assay: qHTS Assay for Inhibitors Targeting the Menin-MLL Interaction in MLL Related Leukemias: Competition With Texas Red Labeled MLL-derived Mutant Peptide). Conditions: fluorescence polarization; FP activity change, negative = inhibition: at 61.6 µM (top of the series).
Sequence of UniProt O00255 (O00255 whole entry, looked up): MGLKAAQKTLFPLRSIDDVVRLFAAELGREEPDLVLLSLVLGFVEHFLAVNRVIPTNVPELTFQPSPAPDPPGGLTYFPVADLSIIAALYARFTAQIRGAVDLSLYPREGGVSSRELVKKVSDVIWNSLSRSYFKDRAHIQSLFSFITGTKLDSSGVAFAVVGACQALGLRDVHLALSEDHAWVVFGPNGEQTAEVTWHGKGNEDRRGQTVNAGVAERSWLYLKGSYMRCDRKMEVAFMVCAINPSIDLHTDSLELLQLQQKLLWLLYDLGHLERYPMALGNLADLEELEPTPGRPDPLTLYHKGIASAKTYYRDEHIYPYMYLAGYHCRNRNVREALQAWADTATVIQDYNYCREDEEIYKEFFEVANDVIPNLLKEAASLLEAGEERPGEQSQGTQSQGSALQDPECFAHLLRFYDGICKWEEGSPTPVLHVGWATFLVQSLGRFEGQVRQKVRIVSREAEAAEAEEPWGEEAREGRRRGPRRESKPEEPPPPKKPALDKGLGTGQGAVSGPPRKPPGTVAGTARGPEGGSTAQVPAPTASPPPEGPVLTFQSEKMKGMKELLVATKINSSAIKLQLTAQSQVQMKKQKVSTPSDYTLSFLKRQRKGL
Potency is the fitted concentration of half-maximal effect; tags give direction and shape of the fitted curve or compound fluorescence and quenching.
Throughout, for FP activity change, negative = inhibition: % of control where 0% means no effect.

SMILES | Potency | FP activity change, negative = inhibition
O=S(=O)(Nc1ccc(N2CCOCC2)cc1)c1ccc(F)cc1 | inconclusive: 7.94 µM [quencher, side channel, full curve, poor fit] | 
C=CCn1c(SCC(=O)NCCC2=CCCCC2)nc2ccc(Cl)cc2c1=O | inconclusive: 8.91 µM [inhibitor, single point] | 
Cn1c(SCC(=O)NCc2ccco2)nnc1-c1cccs1 | inconclusive: 39.8 µM [inhibitor, single point] | 
CS(=O)(=O)N1CCN(c2ccc(NC(=O)c3ccc(-c4ccc(Cl)cc4)o3)cc2)CC1 | inconclusive: 5.62 µM [quencher, side channel, partial curve] | 
Cc1ccc(-c2cc(C(=O)Nc3nccs3)c3ccccc3n2)o1 | inconclusive: 14.1 µM [quencher, side channel, partial curve] | 
O=Nc1c2nc3ccccc3n(O)c-2c2ccccc12 | inconclusive: 10 µM [quencher, side channel, partial curve] | 
Fc1ccc(C(c2nnnn2Cc2cccs2)N2CCN(C3CCCCC3)CC2)cc1 (stereo unspecified) | inconclusive: 8.91 µM [inhibitor, partial curve] | 
Cc1ccc(Oc2nc(CN3CCOCC3)nc3sc4c(c23)CCC(C)C4)cc1C (stereo unspecified) | inconclusive: 14.1 µM [fluorescent, side channel, partial curve] | 
CCCC(=O)Nc1ccc2oc(-c3cccnc3)nc2c1 |  | inactive: -8.25%
c1ccc(C2=Nc3cccc4cccc(c34)N2)cc1 | inconclusive: 31.6 µM [quencher, side channel, partial curve] | 
COc1cc(/C=N/NC(=O)[C@H](Cc2c[nH]c3ccccc23)NC(=O)OCC(C)C)cc([N+](=O)[O-])c1O | inconclusive: 28.2 µM [quencher, side channel, partial curve] | 
CN(C(=S)NC(=O)c1ccc(Cl)cc1)C1CCCCC1 | inconclusive: 14.1 µM [quencher, side channel, partial curve] | 
O=C(NCc1ccc2c(c1)OCO2)c1ccc2c(=O)n(C3CCCC3)c(=O)[nH]c2c1 | inconclusive: 39.8 µM [fluorescent, side channel, single point] | 
CC(=O)N(Cc1cc(=O)[nH]c2ccccc12)c1ccc(C)cc1C |  | inactive: 1.95%
Cc1cccc(OCCCC(=O)NC2CCCCC2)c1 | inconclusive: 39.8 µM [fluorescent, side channel, single point] | 
CCOC(=O)C1(CCc2ccccc2)CCN(Cc2ccc(C(=O)OC)cc2)CC1 | inconclusive: 8.91 µM [fluorescent, side channel, partial curve] | 
CCC1=NN(C(=O)c2ccc([N+](=O)[O-])cc2)C(O)(c2ccccc2)C1 (stereo unspecified) | inconclusive: 22.4 µM [quencher, side channel, partial curve] | 
CCCCNC(=O)CCCCn1c(=S)[nH]c2c([nH]c3ccc(OC)cc32)c1=O |  | inactive: 0.0987%
O=C(N/N=C/c1c[nH]c2ccccc12)c1cccc([N+](=O)[O-])c1 | inconclusive: 35.5 µM [quencher, side channel, partial curve] | 
CC(C)(C)c1ccc(C(CC(=O)O)NS(=O)(=O)Cc2ccccc2)cc1 (stereo unspecified) | inconclusive: 8.91 µM [inhibitor, single point] | 
COc1ccccc1CNc1ccc2c(c1)CCC2 | inconclusive: 15.8 µM [fluorescent, side channel, partial curve] | 

SMILES | Potency | FP activity change, negative = inhibition
C/C(=N/NC(=O)CNC(=O)c1cccnc1)c1ccccc1 | inconclusive: 1.26 µM [inhibitor, full curve] | 
CC1(c2ccccc2)NC(=O)N(CC(=O)Nc2ccc([N+](=O)[O-])cc2)C1=O (stereo unspecified) | inconclusive: 15.8 µM [quencher, side channel, partial curve] | 
O=[N+]([O-])c1ccc(P(=O)(Cc2ccccc2)c2ccccc2O)cc1 (stereo unspecified) | inconclusive: 11.2 µM [inhibitor, partial curve] | 
O=c1oc2ccccc2c2oc3cc(O)c(O)cc3c12 | inconclusive: 31.6 µM [quencher, side channel, single point] | 
O=C(/C=C/c1ccc(Cl)cc1Cl)Nc1cccc(S(=O)(=O)NC2=NCCC2)c1 | inconclusive: 12.6 µM [quencher, side channel, partial curve] | 
Cc1ccc(NC(=O)c2ccc3c(c2)OCCO3)cc1C | inconclusive: 3.98 µM [quencher, side channel, single point] | 
COc1ccccc1CNc1ncnc2ccc(-c3ccoc3)cc12 | inconclusive: 10 µM [quencher, side channel, partial curve] | 
Cc1c(C(=O)O)c2cc(O)ccc2n1-c1ccccc1 |  | inactive: 7.29%
COc1ccc(-n2c(SCC(=O)OC(C)C)nnc2-c2ccccn2)cc1 | inconclusive: 44.7 µM [fluorescent, side channel, partial curve] | 
CCC(=O)Nc1ccc(Nc2nc(C)c([N+](=O)[O-])c(Nc3ccc(NC(=O)CC)cc3)n2)cc1 | inconclusive: 7.08 µM [quencher, side channel, partial curve] | 
Cc1ccc(COc2cccc3c2CCN(Cc2ccc(F)cc2)C3=O)cc1 | inconclusive: 22.4 µM [fluorescent, side channel, partial curve] | 
CCOC(=O)C1CCCN(c2c(C(=O)c3ccccc3)cnc3ccc(OC)cc23)C1 (stereo unspecified) | inconclusive: 14.1 µM [fluorescent, side channel, partial curve] | 
O=C(Cn1cnc2cc([N+](=O)[O-])ccc2c1=O)Nc1ccc2c(c1)CCC2 | inconclusive: 7.94 µM [quencher, side channel, full curve] | 
Cc1ccc(S(=O)(=O)NC2=C(N3CCN(c4ccccc4F)CC3)C(=O)c3ccccc3C2=O)cc1 | inconclusive: 20 µM [quencher, side channel, partial curve] | 
COc1cc2c(cc1OC)C(/C=C/c1ccco1)=NCC2 | inconclusive: 15.8 µM [fluorescent, side channel, partial curve] | 
CN(C)C=NC(=O)c1[nH]c2ccc(Cl)cc2c1-c1ccccc1 | inconclusive: 3.55 µM [quencher, side channel, partial curve] | 
CN(C(=O)Nc1ccc(Cl)c(Cl)c1)c1ccccc1C(=O)O |  | inactive: 5.9%
Cc1ccc(C(=O)NCCc2ccccc2)cc1 |  | inactive: -2.39%
O=C1c2[nH]nc(-c3ccccc3O)c2C(c2ccccc2)N1Cc1ccco1 (stereo unspecified) | inconclusive: 22.4 µM [inhibitor, single point] | 
O=P1(O)OP(=O)(O)OP(=O)(O)O1.[Al] |  | inactive: -7.77%
CCCCCCCCCc1nc2sc3c(c2c(=O)n1NC(=O)c1ccc([N+](=O)[O-])cc1)CC(C)(C)OC3 | inconclusive: 25.1 µM [quencher, side channel, single point] | 

SMILES | Potency | FP activity change, negative = inhibition
COc1cccc(N2CC(O)=C(c3nc4ccccc4c(=O)[nH]3)C2=N)c1 |  | inactive: -1.35%
O=C(Nc1ccccc1N1CCCCC1)c1ccccc1F |  | inactive: 13.8%
O=[N+]([O-])c1cc(S(=O)(=O)N2CCCCCC2)ccc1F |  | inactive: 4.14%
COc1ccc(C(=O)c2sc(Nc3ccccc3F)nc2N)cc1 | inconclusive: 35.5 µM [quencher, side channel, single point] | 
C=C[C@]1(C)Cc2occ(C)c2C[C@H]1C(=C)C(=O)O |  | inactive: -9.14%
CCOc1ccc(Br)cc1S(=O)(=O)Nc1cccnc1 | inconclusive: 39.8 µM [fluorescent, single point] | 
O=C(Nc1ccc(Cl)c(Cl)c1)c1ccc(Cl)c(Cl)c1 | inconclusive: 39.8 µM [fluorescent, side channel, single point] | 
C=CCOc1ccc(/C=N/Nc2ccccn2)cc1OC | inconclusive: 5.62 µM [quencher, side channel, full curve] | 
Nc1cc(-c2ccc(Cl)cc2)nn1S(=O)(=O)c1cccc2nsnc12 | inconclusive: 14.1 µM [quencher, side channel, partial curve] | 
O=C(CNCCC1=CCCCC1)Nc1ccccc1N1CCCCC1 | inconclusive: 25.1 µM [inhibitor, partial curve, poor fit] | 
Oc1ccc(N=Cc2ccc(-c3cccs3)s2)cc1 | inconclusive: 31.6 µM [quencher, side channel, single point] | 
COc1ccccc1-c1nnc(NC(=O)OCC(C)C)s1 | inconclusive: 25.1 µM [inhibitor, single point] | 
COC1=Cc2c(ccc3ccc(=O)oc23)OC1(C)C | inconclusive: 0.562 µM [inhibitor, full curve, poor fit] | 
COc1ccc(C(=O)C[N+]2(C)CCOCC2)cc1 |  | inactive: 5.61%
Cc1ccc(CC(=O)OCC(=O)NC2CCCC(C)C2C)cc1C (stereo unspecified) | inconclusive: 25.1 µM [fluorescent, side channel, partial curve] | 
Cc1ccccc1NC(=S)c1nc2ccccc2[nH]1 | inconclusive: 35.5 µM [quencher, side channel, single point] | 
COc1ccccc1N1CCN(C2CCCN(Cc3cccc(O)c3)C2)CC1 (stereo unspecified) | inconclusive: 10 µM [inhibitor, partial curve] | 
Oc1ccccc1C1Nc2cccc3cccc(c23)N1 | inconclusive: 1.58 µM [quencher, side channel, full curve] | 
CN(Cc1ccccc1)S(=O)(=O)c1ccc(NS(=O)(=O)Cc2ccccc2)cc1 | inconclusive: 22.4 µM [quencher, side channel, partial curve] | 
